Reference: the supplement of paper PMC4166925
± gives the standard deviation of the averaged measurements. Over roughly 33,000 sequences, “E-score (dimensionless, -0.5 to 0.5)” has its median near -0.046; the highest 2% begin near 0.36. This is one part of the list.

What follows are sequences tested on T1, SpTbr T-box DNA-binding domain (GST fusion) (assay: PBM E-score of 8-mer (E-score (dimensionless, -0.5 to 0.5)); Tbr is Tbrain of the sea star Patiria miniata (Pm) or the sea urchin Strongylocentrotus purpuratus (Sp); higher = stronger binding preference; most listed sequences are background and not binding sites). Conditions: the construct has about 5 more residues each side.
T1 sequence: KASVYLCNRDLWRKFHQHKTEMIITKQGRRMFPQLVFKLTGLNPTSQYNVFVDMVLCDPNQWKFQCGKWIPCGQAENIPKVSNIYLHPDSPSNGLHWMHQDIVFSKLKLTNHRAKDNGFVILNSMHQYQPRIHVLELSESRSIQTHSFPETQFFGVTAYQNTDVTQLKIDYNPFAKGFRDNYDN
How it was run: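 Universal Agilent oligonucleotide arrays, made double-stranded by primer extension, were incubated with 200 nM GST-fused Tbr T-box DNA-binding domain in PBS (pH 7.5). The protein was expressed in BL21 E. coli at 20 °C and purified by glutathione affinity chromatography. After scanning and quantification, the Universal PBM Analysis Suite assigned an enrichment E-score to each ungapped 8-mer, averaged over duplicate arrays.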

| Sequence | PBM E-score of 8-mer |
| --- | --- |
| ATAACAGG | 0.121 ± 0.069 |
| AAGATGAG | -0.2214 ± 0.0016 |
| GAGCTAGC | -0.0427 ± 0.028 |
| CTCGCTAC | 0.0733 ± 0.0086 |
| GATAGTGA | 0.228 ± 0.011 |
| CCAAGGGG | -0.174 ± 0.035 |
| GAGCCATA | -0.151 ± 0.031 |
| AAACCATA | -0.0963 ± 0.013 |
| AAGAGCAC | -0.148 ± 0.032 |
| CCACGCGA | 0.172 ± 0.028 |
| CGTGTCGC | 0.254 ± 0.045 |
| ACAGTCAG | -0.036 ± 0.11 |
| ACAATTAA | 0.0501 ± 0.084 |
| CACCAACC | 0.187 ± 0.089 |
| CACACTGG | 0.151 ± 0.0022 |
| AGAAGCGA | 0.0503 ± 0.052 |
| CAATCAGA | -0.0765 ± 0.023 |
| ATGTGAAG | 0.204 ± 0.039 |
| TGTAGTAA | -0.202 ± 0.058 |
| AATTGAAA | -0.26 ± 0.011 |
| CATCATTC | 0.0175 ± 0.013 |
| GATAATCA | 0.0739 ± 0.095 |
| CACTGAGG | 0.0333 ± 0.099 |
| CCAGAATC | -0.147 ± 0.014 |
| GCTCTAAC | 0.0177 ± 0.017 |

| Sequence | PBM E-score of 8-mer |
| --- | --- |
| ATTCTGAC | -0.00299 ± 0.033 |
| CAGAAGTA | -0.263 ± 0.031 |
| CTCGGCTC | -0.00219 ± 0.046 |
| CATGGGGC | -0.233 ± 0.012 |
| GCAGCCAA | 0.0554 ± 0.022 |
| ATGAGTGA | 0.117 ± 0.027 |
| TCAACCCA | -0.174 ± 0.026 |
| AGGTAAGC | -0.261 ± 0.032 |
| CCAGCCGG | -0.00031 ± 0.015 |
| TCAGTGGA | -0.21 ± 0.0026 |
| ACAAACGA | 0.0375 ± 0.075 |
| AGTGATAG | 0.0834 ± 0.011 |
| TGCACGAA | -0.0165 ± 0.0071 |
| TCAAAAAA | -0.118 ± 0.026 |
| ACTGTTAT | 0.152 ± 0.032 |
| AAGTAACT | 0.0732 ± 0.026 |
| ATCTGCAT | -0.0843 ± 0.013 |
| CGAGTTGC | 0.122 ± 0.064 |
| ATCGACCG | -0.0685 ± 0.05 |
| GCCTCACA | 0.292 ± 0.0099 |
| CGAAATCA | 0.108 ± 0.059 |
| CGAGAAGA | 0.105 ± 0.042 |
| ATCGCGAA | 0.367 ± 0.032 |
| AAGGCGAT | 0.0831 ± 0.031 |
| CTGGGCGA | -0.00319 ± 0.011 |

| Sequence | PBM E-score of 8-mer |
| --- | --- |
| GCCTTGAC | 0.0485 ± 0.061 |
| AAAAAGGT | 0.0679 ± 0.11 |
| AAGTAACA | 0.207 ± 0.017 |
| CCGCTGAA | -0.222 ± 0.046 |
| CCTGCTCA | -0.223 ± 0.064 |
| ACTACGAG | 0.0752 ± 0.021 |
| AAGGTCTA | -0.294 ± 0.019 |
| AATCGCAT | 0.113 ± 0.0034 |
| ATTGAAGC | -0.0568 ± 0.045 |
| CCAACACA | 0.299 ± 0.017 |
| TATTTGAA | -0.214 ± 0.013 |
| ACTCATAC | 0.154 ± 0.053 |
| CTTAGACA | 0.0657 ± 0.077 |
| CTAGTAGC | -0.138 ± 0.031 |
| CCAGCGGC | 0.143 ± 0.033 |
| GCCCAGAA | -0.157 ± 0.0081 |
| CCTTAGCG | 0.185 ± 0.0076 |
| GCGCGCAC | 0.243 ± 0.074 |
| CGGTGACG | 0.233 ± 0.02 |
| CTCATCTC | 0.0131 ± 0.028 |
| ATAACTAT | 0.0245 ± 0.069 |
| GGCATGAC | 0.093 ± 0.12 |
| TACTAATA | -0.068 ± 0.086 |
| CACTTTTA | 0.278 ± 0.033 |
| AATCCGGA | -0.0833 ± 0.003 |

| Sequence | PBM E-score of 8-mer |
| --- | --- |
| AATGCGTG | 0.253 ± 0.028 |
| CGCCTCAA | 0.0699 ± 0.016 |
| CGTGTGTA | 0.096 ± 0.044 |
| AACGCGAA | 0.165 ± 0.044 |
| GTCGAGTA | -0.00253 ± 0.043 |
| GTTAGACA | -0.0877 ± 0.027 |
| ACGCCGCC | 0.0447 ± 0.023 |
| AGTGAGTA | 0.0289 ± 0.017 |
| AACCTCAA | -0.158 ± 0.018 |
| CATATGCG | 0.113 ± 0.024 |
| GGCTCTTA | -0.258 ± 0.03 |
| GTCCGGTA | -0.322 ± 0.0059 |
| ATTTACCG | -0.131 ± 0.054 |
| CGTATTTC | -0.182 ± 0.051 |
| ATGGATCC | -0.114 ± 0.064 |
| GATTCGAC | 0.0011 ± 0.011 |
| ATGGGGTA | -0.255 ± 0.076 |
| TCGGAAGA | -0.113 ± 0.029 |
| GTACCAAA | -0.231 ± 0.077 |
| GGGTTGTA | 2.5e-05 ± 0.05 |
| CGAGGACG | 0.00433 ± 0.041 |
| TGCGCGAA | 0.349 ± 0.036 |
| TCCATCGA | -0.0839 ± 0.076 |
| GGTAGAGA | -0.0828 ± 0.023 |
| AAATCGCG | 0.35 ± 0.018 |

| Sequence | PBM E-score of 8-mer |
| --- | --- |
| CAATACCA | 0.0567 ± 0.032 |
| TCTACTAA | 0.0508 ± 0.017 |
| ACGGAGCA | -0.0953 ± 0.0042 |
| ACTTTACT | -0.114 ± 0.017 |
| CAACTGGC | 0.195 ± 0.0086 |
| CCTCCACC | 0.0261 ± 0.016 |
| GAGATCGA | 0.0777 ± 0.032 |
| GCTGACCC | -0.0189 ± 0.062 |
| ACGATCAA | 0.00066 ± 0.0065 |
| GCGGCGAA | -0.0339 ± 0.054 |
| TAGTAGAA | -0.162 ± 0.045 |
| ATTGTAGA | -0.0244 ± 0.073 |
| GGGCTTAA | -0.202 ± 0.041 |
| AGTTATTC | -0.174 ± 0.03 |
| ATACAGTG | -0.0602 ± 0.086 |
| ACTTGGTA | 0.107 ± 0.039 |
| CTGGGGAC | 0.0912 ± 0.011 |
| GGGGTACC | -0.1738 ± 0.00025 |
| AGTGGTTA | -0.0707 ± 0.0042 |
| AGGGTAGG | -0.0233 ± 0.0073 |
| CCATACGC | -0.0539 ± 0.026 |
| AAGCCTTA | -0.28 ± 0.018 |
| GTCGTGCA | -0.0681 ± 0.058 |
| AAAGACTG | -0.176 ± 0.054 |
| CGGGTCAG | -0.0709 ± 0.016 |

| Sequence | PBM E-score of 8-mer |
| --- | --- |
| CGCGAAAG | 0.387 ± 0.015 |
| CTTACTAA | -0.19 ± 0.0069 |
| GATGAGAC | -0.0778 ± 0.034 |
| CTGCCTTC | -0.126 ± 0.0091 |
| GCTCACCC | 0.0214 ± 0.062 |
| AAGCCCAT | -0.202 ± 0.0073 |
| AACATCAT | -0.268 ± 0.054 |
| AAGGCCAA | -0.268 ± 0.038 |
| CCTATTGA | -0.21 ± 0.019 |
| AGACCTAT | -0.142 ± 0.047 |
| AGGCGTCC | 0.0702 ± 0.0083 |
| GGCGGAAC | -0.171 ± 0.037 |
| CATCCAGC | 0.0778 ± 0.0077 |
| CCATGGCC | -0.28 ± 0.015 |
| GAGCTAGA | 0.0345 ± 0.014 |
| AACAAAAG | 0.0359 ± 0.1 |
| GACTCTTA | 0.0596 ± 0.018 |
| CCCTGAAC | -0.0744 ± 0.038 |
| CTCTGAGA | -0.207 ± 0.0074 |
| ATGTCTTG | -0.0305 ± 0.0035 |
| AAGCGAAG | -0.0668 ± 0.088 |
| AGTGAATG | 0.113 ± 0.012 |
| ACAATCAT | -0.00293 ± 0.049 |
| GCGCAAGA | 0.0184 ± 0.044 |
| TACGATCA | -0.116 ± 0.0065 |

| Sequence | PBM E-score of 8-mer |
| --- | --- |
| CGTGTATA | -0.0736 ± 0.07 |
| ATAGCGCA | 0.17 ± 0.014 |
| GACATAGA | -0.106 ± 0.057 |
| CTCAAAAG | -0.147 ± 0.012 |
| CGTATGCC | -0.271 ± 0.057 |
| TACCGCCA | 0.0912 ± 0.014 |
| GCGCCAGA | 0.0931 ± 0.034 |
| TCCATTAA | -0.206 ± 0.075 |
| AAAGTGCG | 0.337 ± 0.006 |
| GTATCCAC | 0.0277 ± 0.049 |
| TTAGCAAA | 0.129 ± 0.027 |
| ATTCATAG | -0.296 ± 0.054 |
| GCTTGTAC | -0.0816 ± 0.042 |
| CAATTGGC | 0.0712 ± 0.018 |
| CCGGAGCA | -0.16 ± 0.027 |
| ACCGAACA | 0.0912 ± 0.1 |
| TGTACAAA | -0.0805 ± 0.017 |
| AGCTCTGC | -0.123 ± 0.0024 |
| AGCTTGCG | 0.0783 ± 0.029 |
| AATGTAGA | -0.248 ± 0.068 |
| AGAGTTAG | -0.00705 ± 0.085 |
| CTGTATAA | -0.236 ± 0.033 |
